Experimental data as given in PubChem BioAssay (NCI).
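Following 48 hours of exposure in 96-well plates, responses at five concentrations were used to interpolate endpoints linearly. GI50 is the concentration that inhibits growth by half. At the TGI there is no net growth.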

The compounds below were run on NCI-H322M lung (assay: NCI anticancer screen, dose series, 48 h).

Compared with `CC1(C)CC[C@]2(C(=O)O)CC[C@]3(C)C(=CCC4[C@@]5(C)C[C@@H](O)[C@@H]6OC(c7ccccc7Br)OC[C@@]6(C)C5CC[C@]43C)C2C1` (stereo partly specified), `Cc1cccc(NC(=O)[C@]23CCC(C)(C)CC2C2=CCC4[C@@]5(C)C[C@@H](O)[C@H](O)[C@@](C)(CO)C5CC[C@@]4(C)[C@]2(C)CC3)c1` (stereo partly specified) is 5.4-fold higher in GI50: 2.93 µM for the first, 15.9 µM for the second.

With `CS(=O)(=O)Nc1cc(-c2ccc3ncnc(Nc4ccc(OCc5cccnc5)c(Cl)c4)c3c2)cnc1Cl` the GI50 was 2.28 µM.

`CC1(C)CC[C@]2(C(=O)O)CC[C@]3(C)C(=CCC4[C@@]5(C)C[C@@H](O)[C@@H]6OC(c7ccccc7Br)OC[C@@]6(C)C5CC[C@]43C)C2C1` (stereo partly specified) and `Cc1cccc(NC(=O)[C@]23CCC(C)(C)CC2C2=CCC4[C@@]5(C)C[C@@H](O)[C@H](O)[C@@](C)(CO)C5CC[C@@]4(C)[C@]2(C)CC3)c1` (stereo partly specified) are within 1.5-fold of each other in TGI: 37.7 µM for the first, 36.3 µM for the second.

Work on `CS(=O)(=O)Nc1cc(-c2ccc3ncnc(Nc4ccc(OCc5cccnc5)c(Cl)c4)c3c2)cnc1Cl` yielded a TGI of 9.29 µM.
